From patent US20220340635A1 (ZHEJIANG DOER BIOLOGICS, published 2022)
Residue numbers refer to the chain shown, from its start.

B1: F9L5W (Fc fusion)
chain: [letters of human IgG1 Fc with changes omitted]GGGGAGGGGAGGGGAHPIPDSSPLLQFGGQVRQRYLYTDDAQQTEAHLEIREDGTVGGAADQSPESLLQLKALKPGVIQILGVKTSRFLCQRPDGALYGSLHFDPEACSFRELLLEDGYNVYQSEAHGLPLHLPGNKSPHRDPAPRGPARFLPLPGLPPALPEPPGILAPQPPDVGSSDPLSMVGPSQGRSPSYAS
B2: F6L5M2 (Fc fusion)
chain: [letters of human IgG4 Fc with S228P N297A (EU numbers) omitted]GGGGAGGGGAGGGGAHPIPDSSPLLQFGGQVRQRYLYTDDAQQTEAHLEIREDGTVGGAADQSPESLLQLKALKPGVIQILGVKTSRFLCQRPDGALYGSLHFDPEACSFRERLLEDGYNVYQSEAHGLPLHCPGNKSPHRDPAPRGPCRFLPLPGLPPALPEPPGILAPQPPDVGSSDPLSMVGGSQGRSPSYES
B3: C0382L1F6 (Fc fusion)
chain: HSQGTFTSDYSEYLDSERARDFVAWLEAGGGGGGSGGGGSGGGGSA[letters of human IgG4 Fc with S228P N297A (EU numbers) omitted]
B4: A001L1F6 (Fc fusion)
chain: HSQGTFTSDYSKYLDSRRAQDFVQWLMNTGGGGSGGGGSGGGGSA[letters of human IgG4 Fc with S228P N297A (EU numbers) omitted]
B5: G232L1F6 (Fc fusion)
chain: B4 chain with S16E, R17Q, R18A, M27L, N28A, T29G
B6: G352L1F6 (Fc fusion)
chain: B4 chain with R17Q, R18A, M27L, N28A, T29G
B7: G395L1F6 (Fc fusion)
chain: B4 chain with S16E, R17E, R18A, M27L, N28A, T29G
B8: G402L1F6 (Fc fusion)
chain: B4 chain with S16E, R17E, R18A, M27L, N28D, T29G
B9: G382L1F6 (Fc fusion)
chain: B4 chain with R17Q, R18A, M27L, N28D, T29G

Each binder was assayed against β-klotho (KLB) (assay: cell-based or functional assay).
With B1 the “FGF21 activity (EC50, nM)” value was 0.48 nM. With B2 the “FGF21 activity (EC50, nM)” value was 0.71 nM.

Each binder was assayed against GCGR (assay: cell-based or functional assay).
In the case of B3, the “GCGR agonist activity (EC50, nM)” value is reported as 4.84 nM.

The binders below were run against T1, human GLP-1R (human, UniProt P43220 24-463) (assay: cell-based or functional assay).
With B3 the “GLP-1 R agonist activity (EC50, nM)” value was 3.12 nM.

Biological target: GCGR
Test: cell-based or functional assay
Remark: another data set of the same source
In the case of B4, the “EC50 (nM) GCGR” value is reported as 7.98 nM. B5 was tested, and the “EC50 (nM) GCGR” value was 1.16 nM. In the case of B6, the “EC50 (nM) GCGR” value is reported as 1.44 nM. For B7, the “EC50 (nM) GCGR” value was 1.03 nM. With B8 the “EC50 (nM) GCGR” value was 1.19 nM. With B9 the “EC50 (nM) GCGR” value was 0.97 nM.

Biological target: T1, human GLP-1R
Test: cell-based or functional assay
Remark: another data set of the same source
In the case of B4, the “EC50 (nM) GLP-1R” value is reported as 380 nM. With B5 the “EC50 (nM) GLP-1R” value was 591 nM. In the case of B6, the “EC50 (nM) GLP-1R” value is reported as 372 nM. For B7, the “EC50 (nM) GLP-1R” value was 406 nM. With B8 the “EC50 (nM) GLP-1R” value was 396 nM. For B9, the “EC50 (nM) GLP-1R” value was 407 nM.
